Measurements published in the supplement of paper PMC4604168 (melanoma cell lines).
Some of the results follow. Repeats are few or missing, and single values can be far off.

What was measured:
Experiment in all cases: cell count relative to DMSO control; melanoma cells; higher = more viable cells
Conditions in all cases: library dose: standard library concentration; 72 h
G361 = test system: G361
IPC-298 = test system: IPC-298
IST-MEL1 = test system: IST-MEL1
LB2518-MEL = test system: LB2518-MEL
LOXIMVI = test system: LOXIMVI
MEL-HO = test system: MEL-HO
MZ2-MEL = test system: MZ2-MEL
MeWo = test system: MeWo
RPMI7951 = test system: RPMI7951
RVH-421 = test system: RVH-421
SkMel28 = test system: SkMel28
SkMel2 = test system: SkMel2
SkMel30 = test system: SkMel30
SkMel5 = test system: SkMel5
UACC257 = test system: UACC257
UACC62 = test system: UACC62
WM115 = test system: WM115
WM1716 = test system: WM1716
WM3526 = test system: WM3526
WM1745 = test system: WM1745
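Also: cells treated in 1,536-well plates, then fixed and DAPI-stained, with nuclei counted from automated high-throughput microscope images.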

Compound	cell count (G361) [%]	cell count (IPC-298) [%]	cell count (IST-MEL1) [%]	cell count (LB2518-MEL) [%]	cell count (LOXIMVI) [%]	cell count (MEL-HO) [%]	cell count (MZ2-MEL) [%]	cell count (MeWo) [%]	cell count (RPMI7951) [%]	cell count (RVH-421) [%]	cell count (SkMel28) [%]	cell count (SkMel2) [%]	cell count (SkMel30) [%]	cell count (SkMel5) [%]	cell count (UACC257) [%]	cell count (UACC62) [%]	cell count (WM115) [%]	cell count (WM1716) [%]	cell count (WM3526) [%]	cell count (WM1745) [%]
Nc1ncn([C@H]2C[C@H](O)[C@@H](CO)O2)c(=O)n1 [decitabine] + O=C(Oc1ccc([N+](=O)[O-])cc1)N1CCC(C(O)(c2ccc3c(c2)OCO3)c2ccc3c(c2)OCO3)CC1 [JZL184] (first compound 0.5 µM, partner dose 5 µM)	79.3	55.2	80	111	94.3	65.3	74.8	69.4	83.4	80.8	90.3	105	96.4	65.8	101	57.7	70.8	65	77	
NC1(c2ccc(-c3nc4ccn5c(=O)[nH]nc5c4cc3-c3ccccc3)cc2)CCC1 + O=C(Oc1ccc([N+](=O)[O-])cc1)N1CCC(C(O)(c2ccc3c(c2)OCO3)c2ccc3c(c2)OCO3)CC1 [JZL184] (first compound 2 µM, partner dose 5 µM)	92	121	93.7	116	91.2	82.2	108	91.7	81.4	85.3	78.1	76.2	103	75.3	81.7	77.2	66.5	82.3	75.5	
CS(=O)(=O)CCNCc1ccc(-c2ccc3ncnc(Nc4ccc(OCc5cccc(F)c5)c(Cl)c4)c3c2)o1 [lapatinib] + Cc1cc(SCc2sc(-c3ccc(C(F)(F)F)c(F)c3)nc2C)ccc1OCC(=O)O [GW0742] (first compound 4 µM, partner dose 10 µM)	61.4	92.5	89.9	103	108	73.3	58.3	79	51.9	98.8	86.1	84.2	108	54.7	104	49.7	94.3	83.7	90.1	
CC1(C)CCC(c2ccc(Cl)cc2)=C(CN2CCN(c3ccc(C(=O)NS(=O)(=O)c4ccc(N[C@H](CCN5CCOCC5)CSc5ccccc5)c(S(=O)(=O)C(F)(F)F)c4)cc3)CC2)C1 + C/C(O)=C(\C#N)C(=O)Nc1cc(Br)ccc1Br [LFM-A13] (first compound 2 µM, partner dose 10 µM)	80.5	83.5	68.4	78.5	252	58.6	75.2	92	55.7	72.8	84.2	80.1	39.8	96.4	24.9	57.7	69.6	63.1	67.7	
Cn1sc(=O)n(Cc2ccccc2)c1=O + O=C(Oc1ccc([N+](=O)[O-])cc1)N1CCC(C(O)(c2ccc3c(c2)OCO3)c2ccc3c(c2)OCO3)CC1 [JZL184] (first compound 2 µM, partner dose 5 µM)	88	93.3	101	136	99.3	106	91.1	95.1	46.6	99.3	82.5	97.5	106	96.5	95.1	79.5	79.6	82	101	
OCc1c[nH]c2ccccc12 [Indole-3-carbinol] + Cc1cc(SCc2sc(-c3ccc(C(F)(F)F)c(F)c3)nc2C)ccc1OCC(=O)O [GW0742] (first compound 4 µM, partner dose 10 µM)	110	108	99.9	98.5	93	92.3	109	112	105	93.8	96.6	117	149	123	109	106	94.4	104	112	
N#CC[C@H](C1CCCC1)n1cc(-c2ncnc3[nH]ccc23)cn1 [ruxolitinib] + C/C(O)=C(\C#N)C(=O)Nc1cc(Br)ccc1Br [LFM-A13] (first compound 5 µM, partner dose 10 µM)	64.6	92.4	90.9	128	130	75.2	64.1	75.1	63.1	104	82.6	99.7	125	65.7	83.3	93.6	105	72.3	87.1	
NC(=O)c1ccc(N(C(N)=O)c2c(F)cccc2F)nc1-c1ccc(F)cc1F + C/C(O)=C(\C#N)C(=O)Nc1cc(Br)ccc1Br [LFM-A13] (first compound 2 µM, partner dose 10 µM)	96.9	119	99.1	90.4	81.8	87.9	90.4	90.8	86.2	85.2	82.8	102	87.9	108	102	74.2	89	117	99.8	
C[C@@H](N)c1ccc(C(=O)Nc2ccnc3[nH]ccc23)cc1 + C/C(O)=C(\C#N)C(=O)Nc1cc(Br)ccc1Br [LFM-A13] (first compound 2 µM, partner dose 10 µM)	124	91.1	93.9	120	103	70.8	51.9	73.7	49.1	67.5	94.2	99.6	99.7	52.2	68.7	64.7	91.8	45.7	86.4	
Cc1ccc(Nc2nccc(N(C)c3ccc4c(C)n(C)nc4c3)n2)cc1S(N)(=O)=O [Pazopanib] + O=C(Oc1ccc([N+](=O)[O-])cc1)N1CCC(C(O)(c2ccc3c(c2)OCO3)c2ccc3c(c2)OCO3)CC1 [JZL184] (first compound 2 µM, partner dose 5 µM)	81.7	84.9	131	99.1	93.3	104	94.1	92.4	98.8	131	72.8	115	83.1	80.3	87	94.8	101	97.2	83.8	
C[C@@H](N)c1ccc(C(=O)Nc2ccnc3[nH]ccc23)cc1 + O=C(Oc1ccc([N+](=O)[O-])cc1)N1CCC(C(O)(c2ccc3c(c2)OCO3)c2ccc3c(c2)OCO3)CC1 [JZL184] (first compound 2 µM, partner dose 5 µM)	94	111	88.1	127	96.4	77.4	57.8	66.5	53.4	61.6	76.1	89.5	106	54.3	71.1	61.1	90.5	61.5	82.5	
CC(=O)O[C@@]12CO[C@@H]1C[C@H](O)[C@@]1(C)C(=O)[C@H](O)C3=C(C)[C@@H](OC(=O)[C@H](O)[C@@H](NC(=O)OC(C)(C)C)c4ccccc4)C[C@@](O)([C@@H](OC(=O)c4ccccc4)[C@H]21)C3(C)C [Docetaxel] + Cc1cc(SCc2sc(-c3ccc(C(F)(F)F)c(F)c3)nc2C)ccc1OCC(=O)O [GW0742] (first compound 0.0005 µM, partner dose 10 µM)	16.2	52.5	41.6	47.9	72.2	47.4	50.5	28.9	19.2	47	14.3	19.1	38.6	28.8	61	50.5	48.5	36.9	42.4	
COc1cc([C@@H]2c3cc4c(cc3[C@@H](O[C@@H]3O[C@@H]5CO[C@@H](C)O[C@H]5[C@H](O)[C@H]3O)[C@H]3COC(=O)[C@H]23)OCO4)cc(OC)c1O [etoposide] + N.N.[Cl][Pt][Cl] [cisplatin] (first compound 0.1 µM, partner dose 8 µM)	75.7	72.8	88.8	95.9	55.4	81.8	67	76.7	81.8	202	60.6	60.5	68.4	74.7	70.5	44.8	56.4	71.5	71	79.2
C[C@]1(O)C[C@@H](c2nc(-c3ccc4ccc(-c5ccccc5)nc4c3)c3c(N)nccn32)C1 + C/C(O)=C(\C#N)C(=O)Nc1cc(Br)ccc1Br [LFM-A13] (first compound 2 µM, partner dose 10 µM)	76.1	74.9	82.3	73.3	77.5	78.7	76.7	62.5	67.4	89.6	60.5	66.1	74.1	67.2	90.8	53.6	79.2	104	62.7	
Nc1nc(F)nc2c1ncn2[C@@H]1O[C@H](CO)[C@@H](O)[C@@H]1O [fludarabine] + O=C(Oc1ccc([N+](=O)[O-])cc1)N1CCC(C(O)(c2ccc3c(c2)OCO3)c2ccc3c(c2)OCO3)CC1 [JZL184] (first compound 1 µM, partner dose 5 µM)	86	76.7	77.6	101	95.9	75.2	110	85.8	71.9	81	1.86	2.52	14.9	15.9	33.2	97.9	101	84.1	26.8	
CC[C@]1(O)C[C@H]2CN(CCc3c([nH]c4ccccc34)[C@@](C(=O)OC)(c3cc4c(cc3OC)N(C=O)[C@H]3[C@@](O)(C(=O)OC)[C@H](OC(C)=O)[C@]5(CC)C=CCN6CC[C@]43[C@@H]65)C2)C1 [vincristine] + O=C(Oc1ccc([N+](=O)[O-])cc1)N1CCC(C(O)(c2ccc3c(c2)OCO3)c2ccc3c(c2)OCO3)CC1 [JZL184] (first compound 0.0005 µM, partner dose 5 µM)	84.1	102	89.4	103	67.3	104	87.3	30.8	23.2	58.5	69.8	77.6	35.4	37.2	59.1	41.2	34.9	31.4	40.2	
CC[C@]1(O)C[C@H]2CN(CCc3c([nH]c4ccccc34)[C@@](C(=O)OC)(c3cc4c(cc3OC)N(C=O)[C@H]3[C@@](O)(C(=O)OC)[C@H](OC(C)=O)[C@]5(CC)C=CCN6CC[C@]43[C@@H]65)C2)C1 [vincristine] + C/C(O)=C(\C#N)C(=O)Nc1cc(Br)ccc1Br [LFM-A13] (first compound 0.0005 µM, partner dose 10 µM)	52	69.5	58.6	62	49.3	79.1	40.2	18	18.3	51.5	24.7	14.2	51.5	37.1	49.3	51	20.6	46.8	68.5	
